# According to PubChem BioAssay AID588855 (National Center for Advancing Translational Sciences (NCATS), 2011):
# In all, about 410,000 compounds went through this assay and about 5,000 (1.2%) were called active. The inconclusive results got no clear call from the source; some entries with a clear call stand among them for comparison. Calls follow the shape of the dose curve; as a rule, active = well fitted inhibition curve with a large enough effect; inconclusive = small, poorly fitted or top-dose-only effect; inactive = no such curve, though single readings can be large or run the other way. Potencies of inconclusive entries are doubtful fits and often do not repeat.
# Assay: qHTS for Inhibitors of TGF-b; also: nearly all actives have a fitted effect of over 65% in size
# Settings: HepG2 CAGA-GFP TGF-b/SMAD3 reporter, GFP fluorescence, 18 h, TGF-beta stimulated, 500 pg/mL final; series mostly up to 46.1 µM
# In short: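 TGF-beta reporter screen: HEPG2 CAGA-GFP, 1% FBS, 500 pg/mL TGF-beta final, 18 h; per-cell GFP summed per well; curves fitted and categorized by class.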
# Potency is read from the fitted curve at half-maximal effect; tags tell the direction and shape of the fitted curve.
row,Compound,Potency
1,Cc1c(CNCCCc2ccccc2)c(C(=O)O)c(C)n1Cc1ccc(Cl)cc1,inactive
2,Cc1ccc(Cn2cc(CCC(=O)NC3CCCCC3)c3ccccc32)cc1,"inconclusive: 10 µM [inhibitor, single point]"
3,Cc1cc(-n2c(C)cc(C(=O)CSc3ccc4c(c3)OCCO4)c2C)no1,inactive
4,O=C(Nc1cc(Cl)ccc1-n1cncn1)c1ccc([N+](=O)[O-])s1,"inconclusive: 10 µM [inhibitor, partial curve]"
5,Cc1ccc(NC(=O)COC(=O)CSC(=S)N2CCOCC2)cc1,inactive
6,COc1ccc(COC(=O)c2cc([N+](=O)[O-])ccc2N2CCOCC2)cc1F,"inconclusive: 0.398 µM [inhibitor, full curve]"
7,COc1cc([N+](=O)[O-])c2nc(C=NNC(N)=S)ccc2c1,"inconclusive: 1 µM [inhibitor, full curve]"
8,COc1ccccc1N1CCN(S(=O)(=O)CCNC(=O)c2ccccc2Br)CC1,inactive
9,O=C(N/N=C/c1ccccc1OC(=O)c1ccc2c(c1)OCO2)c1ccccc1,"inconclusive: 35.5 µM [inhibitor, single point]"
10,Cc1cc(C)cc(C(=O)Nc2ccc(-c3cn4cccnc4n3)cc2)c1,"inconclusive: 17.8 µM [inhibitor, single point]"
11,O=C(C1=C[C@H](c2ccc(C(F)(F)F)cc2)C[C@H](OCc2ccc(CO)cc2)O1)N1CCN(Cc2ccc3c(c2)OCO3)CC1,"inconclusive: 10 µM [inhibitor, partial curve, poor fit]"
12,N#CC1(c2ccccc2)CCCN1C(=O)c1ccccc1Br (stereo not given),"inconclusive: 0.0355 µM [inhibitor, full curve, poor fit]"
13,CCc1ccc(CN(C)Cc2nc(Cc3cccc(C(F)(F)F)c3)no2)nc1,"inconclusive: 0.447 µM [inhibitor, full curve, poor fit]"
14,O=C(C1=C(O)C(=O)N(CC2CCCO2)C1c1ccccc1Cl)c1ccco1 (stereo not given),inactive
15,Cc1ccc(C)c(N2CCN(C(=O)Cn3cccc3)CC2)c1,inactive
16,CCCSc1nsc(NC(=O)CC)n1,"inconclusive: 15.8 µM [inhibitor, partial curve, poor fit]"
17,COc1ccc(S(=O)(=O)N(C)C[C@H]2Oc3c(NC(=O)Nc4c(C)noc4C)cccc3C(=O)N([C@H](C)CO)C[C@@H]2C)cc1,"inconclusive: 0.794 µM [inhibitor, partial curve, poor fit]"
18,O=C1CC[C@@H](OCc2ccccc2)CCN1CC[C@H](Sc1ccccc1)c1ccccc1,"inconclusive: 25.1 µM [inhibitor, single point]"
19,COc1ccc(OC)c(S(=O)(=O)NC(=O)C2(C)CCN2C(=O)Cc2ccccc2Cl)c1 (stereo not given),inactive
20,N#C/C(=N\Nc1ccc(Cl)cc1)C(N)=S,"inconclusive: 14.1 µM [inhibitor, partial curve, poor fit]"
21,COc1ccc(C2NCCc3c2[nH]c2ccccc32)cc1COc1ccc(F)cc1 (stereo not given),"inconclusive: 25.1 µM [inhibitor, single point]"
22,O=[N+]([O-])c1cccc(S(=O)(=O)c2ccc(N3CCCCC3)c([N+](=O)[O-])c2)c1,"inconclusive: 15.8 µM [inhibitor, single point]"

row,Compound,Potency
1,Cc1nn(C)c(C)c1/C=N/N=C1\CCC2C3CCc4cc(O)ccc4C3CCC12C (stereo not given),inactive
2,COc1ccc(N=C2SC(CC(=O)Nc3cccc(Cl)c3)C(=O)N2Cc2ccco2)cc1 (stereo not given),"inconclusive: 35.5 µM [inhibitor, single point]"
3,COCCCn1c(SCC(=O)Nc2ccc(F)cc2)nc2c(sc3ccccc32)c1=O,inactive
4,CCn1c(C)nc2cc(S(=O)(=O)C(F)(F)C(F)C(F)(F)F)ccc21 (stereo not given),"inconclusive: 0.708 µM [inhibitor, full curve]"
5,Cn1c(SCC(=O)NC(=O)NCc2ccco2)nnc1C(F)(F)F,"inconclusive: 35.5 µM [inhibitor, single point]"
6,COc1ccc(Cl)cc1NC(=O)Cn1nc(C(F)(F)F)c2c1CCCC2,active: 12.6 µM
7,Nc1c2c(nc3cccc(Cl)c13)N(c1ccccc1)CC2,"inconclusive: 0.891 µM [inhibitor, full curve, poor fit]"
8,CC(C)(C)OC(=O)C[C@H]1C/C=C\C[C@@H](CC(=O)N[C@H](CO)Cc2ccccc2)C(=O)N2CCC[C@H]2COC1=O,"inconclusive: 28.2 µM [inhibitor, single point]"
9,Cc1ccc(-c2nc(NC(=O)c3nn(C)cc3[N+](=O)[O-])sc2C)cc1,"inconclusive: 10 µM [inhibitor, partial curve, poor fit]"
10,COc1ccc(CNC(=O)c2cc3cccc4c3n2CC(C)S4)cc1OC (stereo not given),inactive
11,O=S(=O)(NCC1CCN(c2ccc(S(=O)(=O)N3CCOCC3)cc2)CC1)c1ccccc1,"inconclusive: 0.794 µM [inhibitor, full curve, poor fit]"
12,Cc1ccccc1OCC(=O)Nc1ccccc1N1CCCCC1,inactive
13,CCOP(=O)(OCC)c1nc(-c2ccc(Cl)cc2Cl)oc1N1CCCCC1,"inconclusive: 31.6 µM [inhibitor, single point]"
14,Cc1ccc(CNS(=O)(=O)c2ccc3[nH]c4c(c3c2)CCCCC4)cc1,"inconclusive: 25.1 µM [inhibitor, partial curve, poor fit]"
15,COc1ccc(OCC(=O)NCC(c2cccs2)N2CCOCC2)cc1 (stereo not given),"inconclusive: 6.31 µM [inhibitor, single point]"
16,CC(=O)c1ccc(NC(=O)c2cc3sccc3n2Cc2ccc(Cl)cc2)cc1,"inconclusive: 14.1 µM [inhibitor, single point]"
17,Cc1ccc(N(CC(=O)NCCSc2ccccc2)S(=O)(=O)c2ccc(F)cc2)cc1,"inconclusive: 22.4 µM [inhibitor, single point]"
18,COc1ccccc1OCCNC(=O)CCC(=O)N1CCOCC1,inactive
19,CCOc1ccc(CCN2C(=S)N([C@@H](Cc3ccc(O)cc3)CN3CCC[C@@H]3CN3C(=S)NC[C@@H]3CC(C)C)C[C@@H]2CC(C)C)cc1,active: 4.47 µM
20,COc1cc(NS(=O)(=O)c2ccc(NC(=O)C3CCCO3)cc2)nc(OC)n1 (stereo not given),"inconclusive: 6.31 µM [inhibitor, single point]"
21,O=C(NCCOc1ccc(Cl)cc1)c1ccc2ccccc2n1,"inconclusive: 35.5 µM [inhibitor, partial curve, poor fit]"
22,O=C(Cc1ccc(Cl)cc1Cl)OCC(=O)N1CCCCC1,"inconclusive: 3.55 µM [inhibitor, single point]"

row,Compound,Potency
1,COc1ccc(-c2cccc([C@H]3[C@@H]4C=CC[C@@H](C)[C@@H]4C(=O)N3Cc3ccccc3)c2)cc1,"inconclusive: 35.5 µM [inhibitor, single point]"
2,CN(Cc1ccccc1)C(=O)c1[nH]cnc1C(=O)NCc1ccc(CNC(=O)OC(C)(C)C)cc1,"inconclusive: 2.51 µM [inhibitor, full curve, poor fit]"
3,COc1ccc(OC)c(C2C3=C(COC3=O)Nc3cc4c(cc32)OCO4)c1 (stereo not given),"inconclusive: 3.98 µM [inhibitor, full curve]"
4,C[C@@H]1CN([C@@H](C)CO)C(=O)c2cc(NC(=O)CCC(F)(F)F)ccc2O[C@H]1CN(C)Cc1ccc(Cl)c(Cl)c1,active: 12.6 µM
5,COc1ccc(C)cc1-n1nnc(S(=O)(=O)c2ccc(C)cc2)c1C,inactive
6,COc1ccc(CCNC(=O)c2ccc(=O)[nH]c2)cc1OC,inactive
7,COc1ccc(CNc2oc(/C=C/c3cc(OC)c(OC)c(OC)c3)nc2C#N)cc1,"inconclusive: 11.2 µM [inhibitor, partial curve, poor fit]"
8,CCOc1ccc(Nc2oc(/C=C/c3ccc(OC)c(OC)c3)nc2C#N)cc1,"inconclusive: 22.4 µM [inhibitor, single point]"
9,O=C(OCC(=O)N1CCOCC1)c1cncc(Br)c1,inactive
10,CC1CCCCN1C(=O)CSc1nc2ccsc2c(=O)n1Cc1ccccn1 (stereo not given),inactive
11,CC(C)COc1ccc(-c2nn(-c3ccccc3)cc2CO)cc1,"inconclusive: 15.8 µM [inhibitor, partial curve, poor fit]"
12,CC(C)c1ccc2c(c1)c(SC(C)(C)C)c(CC(C)(C)C(=O)O)n2Cc1ccc(Cl)cc1,active: 10 µM
13,Cc1nn(-c2ccccc2)c(Cl)c1/C=N/NC(=O)c1ccccc1NS(=O)(=O)c1cccs1,"inconclusive: 0.562 µM [inhibitor, full curve, poor fit]"
14,CCC(C)NS(=O)(=O)c1ccc(NC(=O)CCC2CCCCC2)cc1 (stereo not given),"inconclusive: 35.5 µM [inhibitor, partial curve, poor fit]"
15,O=C(Oc1oc(-c2ccco2)nc1C=Nc1ccccc1)c1ccco1,inactive
16,CCCOC(=O)c1ccc(NC(=O)c2c(Cl)ccc(Cl)c2OC)cc1,"inconclusive: 35.5 µM [inhibitor, single point]"
17,CCO[C@@H]1OC(C(=O)NCc2ccccc2)=C[C@H](c2ccc(Br)cc2)[C@H]1CCCO,"inconclusive: 2.82 µM [inhibitor, full curve]"
18,CN1C(=O)[C@H]2[C@@H](c3ccc(C(F)(F)F)cc3)N[C@]3(CCCN(Cc4ccc(Br)cc4)C3=O)[C@H]2C1=O,inactive
19,O=c1[nH]n2c(=O)c3c([nH]c2c1N=Nc1cccc(C(F)(F)F)c1)CCCC3,"inconclusive: 2.82 µM [inhibitor, full curve, poor fit]"
20,CCOc1ccc2nc(N/C(N)=N/C(=S)Nc3cccc(OC)c3)nc(C)c2c1,inactive
21,O=C(CN1c2ccc(Br)cc2-c2ccccc2S1(=O)=O)N1CCCCC1,inactive
